Assay results published in the supplement of paper PMC4604168 (melanoma cell lines).
The other results are listed elsewhere or left out. Single values are uncertain, as repeats are few or missing.

These compounds were tested on WM115 (assay: cell count relative to DMSO control; melanoma cells; higher = more viable cells). Conditions: library dose: standard library concentration; 72 h.
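Further: cells treated in 1,536-well plates, then fixed and DAPI-stained, with nuclei counted from automated high-throughput microscope images.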

| Structure (SMILES) | cell count |
| --- | --- |
| Cc1ccc(Nc2nccc(N(C)c3ccc4c(C)n(C)nc4c3)n2)cc1S(N)(=O)=O [Pazopanib] + CC(C)CCN1c2nc(Nc3cc(F)c(O)c(F)c3)ncc2N(C)C(=O)C1C [BID1870] (first compound 2 µM, partner dose 1 µM) | 81.3% |
| Cc1ccc(Nc2nccc(N(C)c3ccc4c(C)n(C)nc4c3)n2)cc1S(N)(=O)=O [Pazopanib] + CCc1ccc(CCOc2ccc(CC3SC(=O)NC3=O)cc2)nc1 [pioglitazone] (first compound 2 µM, partner dose 10 µM) | 108% |
| O=C(/C=C/c1cccnc1)NCCCCC1CCN(C(=O)c2ccccc2)CC1 + O=C1NC(=O)/C(=C/c2ccc(-c3ccc(F)cc3O)o2)S1 [AS252424] (first compound 0.05 µM, partner dose 5 µM) | 97.1% |
| O=C(/C=C/c1cccnc1)NCCCCC1CCN(C(=O)c2ccccc2)CC1 + COc1ccc2c(c1)CCC1C2CCC2(C)C(NCCCCCCN3C(=O)C=CC3=O)CCC12 [U73122] (first compound 0.05 µM, partner dose 2 µM) | 82.7% |
| O=C(/C=C/c1cccnc1)NCCCCC1CCN(C(=O)c2ccccc2)CC1 + CCN(CC)CCCCNc1ncc2cc(-c3cc(OC)cc(OC)c3)c(NC(=O)NC(C)(C)C)nc2n1 [PD173074] (first compound 0.05 µM, partner dose 0.5 µM) | 76.8% |
| CC1(C)CCC(c2ccc(Cl)cc2)=C(CN2CCN(c3ccc(C(=O)NS(=O)(=O)c4ccc(N[C@H](CCN5CCOCC5)CSc5ccccc5)c(S(=O)(=O)C(F)(F)F)c4)cc3)CC2)C1 + O=C1NC(=O)/C(=C/c2ccc(-c3ccc(F)cc3O)o2)S1 [AS252424] (first compound 2 µM, partner dose 5 µM) | 61.3% |
| Cc1ccc(Nc2nccc(N(C)c3ccc4c(C)n(C)nc4c3)n2)cc1S(N)(=O)=O [Pazopanib] + Oc1cc(-c2nc(-c3ccccc3)[nH]c2-c2ccncc2)ccc1Cl [L779450] (first compound 2 µM, partner dose 1 µM) | 60.8% |
| CC1(C)CCC(c2ccc(Cl)cc2)=C(CN2CCN(c3ccc(C(=O)NS(=O)(=O)c4ccc(N[C@H](CCN5CCOCC5)CSc5ccccc5)c(S(=O)(=O)C(F)(F)F)c4)cc3)CC2)C1 + COc1ccc2c(c1)CCC1C2CCC2(C)C(NCCCCCCN3C(=O)C=CC3=O)CCC12 [U73122] (first compound 2 µM, partner dose 2 µM) | 49.4% |
| Cc1ccc(Nc2nccc(N(C)c3ccc4c(C)n(C)nc4c3)n2)cc1S(N)(=O)=O [Pazopanib] + O=C1NC(=O)/C(=C/c2ccc(-c3ccc(F)cc3O)o2)S1 [AS252424] (first compound 2 µM, partner dose 5 µM) | 94.8% |
| O=C(/C=C/c1cccnc1)NCCCCC1CCN(C(=O)c2ccccc2)CC1 + O=c1cc(-c2cccc3c2Sc2ccccc2S3)oc(N2CCOCC2)c1 [KU55933] (first compound 0.05 µM, partner dose 5 µM) | 103% |
| Cc1ccc(Nc2nccc(N(C)c3ccc4c(C)n(C)nc4c3)n2)cc1S(N)(=O)=O [Pazopanib] + N#Cc1c(O)c2c(-c3ccc(-c4ccccc4O)cc3)csc2[nH]c1=O [A769662] (first compound 2 µM, partner dose 10 µM) | 99.5% |
| O=C(/C=C/c1cccnc1)NCCCCC1CCN(C(=O)c2ccccc2)CC1 + Oc1cc(-c2nc(-c3ccccc3)[nH]c2-c2ccncc2)ccc1Cl [L779450] (first compound 0.05 µM, partner dose 1 µM) | 66.2% |
| CC1(C)CCC(c2ccc(Cl)cc2)=C(CN2CCN(c3ccc(C(=O)NS(=O)(=O)c4ccc(N[C@H](CCN5CCOCC5)CSc5ccccc5)c(S(=O)(=O)C(F)(F)F)c4)cc3)CC2)C1 + O=C(Nc1ccccc1)c1cc([N+](=O)[O-])ccc1Cl [GW9662] (first compound 2 µM, partner dose 10 µM) | 73.2% |
| CC1(C)CCC(c2ccc(Cl)cc2)=C(CN2CCN(c3ccc(C(=O)NS(=O)(=O)c4ccc(N[C@H](CCN5CCOCC5)CSc5ccccc5)c(S(=O)(=O)C(F)(F)F)c4)cc3)CC2)C1 + Nc1nc(F)nc2c1ncn2[C@@H]1O[C@H](CO)[C@@H](O)[C@@H]1O [fludarabine] (first compound 2 µM, partner dose 1 µM) | 72.8% |
| CC1(C)CCC(c2ccc(Cl)cc2)=C(CN2CCN(c3ccc(C(=O)NS(=O)(=O)c4ccc(N[C@H](CCN5CCOCC5)CSc5ccccc5)c(S(=O)(=O)C(F)(F)F)c4)cc3)CC2)C1 + CC(C)CCN1c2nc(Nc3cc(F)c(O)c(F)c3)ncc2N(C)C(=O)C1C [BID1870] (first compound 2 µM, partner dose 1 µM) | 72.2% |
| Cc1ccc(Nc2nccc(N(C)c3ccc4c(C)n(C)nc4c3)n2)cc1S(N)(=O)=O [Pazopanib] + COc1ccc2c(c1)CCC1C2CCC2(C)C(NCCCCCCN3C(=O)C=CC3=O)CCC12 [U73122] (first compound 2 µM, partner dose 2 µM) | 115% |
| CC1(C)CCC(c2ccc(Cl)cc2)=C(CN2CCN(c3ccc(C(=O)NS(=O)(=O)c4ccc(N[C@H](CCN5CCOCC5)CSc5ccccc5)c(S(=O)(=O)C(F)(F)F)c4)cc3)CC2)C1 + COc1ccc(-c2ccc3c(N4CCOCC4)nc(N4C[C@@H](C)O[C@@H](C)C4)nc3n2)cc1CO [KU0063794] (first compound 2 µM, partner dose 0.1 µM) | 56.5% |
| CC1(C)CCC(c2ccc(Cl)cc2)=C(CN2CCN(c3ccc(C(=O)NS(=O)(=O)c4ccc(N[C@H](CCN5CCOCC5)CSc5ccccc5)c(S(=O)(=O)C(F)(F)F)c4)cc3)CC2)C1 + CCN(CC)CCCCNc1ncc2cc(-c3cc(OC)cc(OC)c3)c(NC(=O)NC(C)(C)C)nc2n1 [PD173074] (first compound 2 µM, partner dose 0.5 µM) | 80.4% |
| CC1(C)CCC(c2ccc(Cl)cc2)=C(CN2CCN(c3ccc(C(=O)NS(=O)(=O)c4ccc(N[C@H](CCN5CCOCC5)CSc5ccccc5)c(S(=O)(=O)C(F)(F)F)c4)cc3)CC2)C1 + Oc1cc(-c2nc(-c3ccccc3)[nH]c2-c2ccncc2)ccc1Cl [L779450] (first compound 2 µM, partner dose 1 µM) | 18.4% |
| CC1(C)CCC(c2ccc(Cl)cc2)=C(CN2CCN(c3ccc(C(=O)NS(=O)(=O)c4ccc(N[C@H](CCN5CCOCC5)CSc5ccccc5)c(S(=O)(=O)C(F)(F)F)c4)cc3)CC2)C1 + O=c1cc(-c2cccc3c2Sc2ccccc2S3)oc(N2CCOCC2)c1 [KU55933] (first compound 2 µM, partner dose 5 µM) | 80.5% |
| O=C(/C=C/c1cccnc1)NCCCCC1CCN(C(=O)c2ccccc2)CC1 + c1cc(-c2cnn3cc(-c4ccc(OCCN5CCCCC5)cc4)cnc23)ccn1 [Dorsomorphin] (first compound 0.05 µM, partner dose 2 µM) | 74.7% |
| Cc1ccc(Nc2nccc(N(C)c3ccc4c(C)n(C)nc4c3)n2)cc1S(N)(=O)=O [Pazopanib] + O=C(O)C(=O)Nc1sc2c(c1C(=O)O)CCNC2 [TCS401] (first compound 2 µM, partner dose 8.33333 µM) | 83.9% |
| Cc1ccc(Nc2nccc(N(C)c3ccc4c(C)n(C)nc4c3)n2)cc1S(N)(=O)=O [Pazopanib] + COc1ccc(-c2ccc3c(N4CCOCC4)nc(N4C[C@@H](C)O[C@@H](C)C4)nc3n2)cc1CO [KU0063794] (first compound 2 µM, partner dose 0.1 µM) | 87.9% |
| Cc1ccc(Nc2nccc(N(C)c3ccc4c(C)n(C)nc4c3)n2)cc1S(N)(=O)=O [Pazopanib] + Cc1cc([N+](=O)[O-])ccc1NS(=O)(=O)c1cc(Cl)ccc1Cl [FH535] (first compound 2 µM, partner dose 5 µM) | 74.9% |
| O=C(/C=C/c1cccnc1)NCCCCC1CCN(C(=O)c2ccccc2)CC1 + Oc1nc(-c2ccc(C(F)(F)F)cc2)nc2c1CSCC2 [XAV939] (first compound 0.05 µM, partner dose 10 µM) | 90% |
| CC1(C)CCC(c2ccc(Cl)cc2)=C(CN2CCN(c3ccc(C(=O)NS(=O)(=O)c4ccc(N[C@H](CCN5CCOCC5)CSc5ccccc5)c(S(=O)(=O)C(F)(F)F)c4)cc3)CC2)C1 + COc1ccc(COc2ccc(Cc3cnc(N)nc3N)cc2OC)cc1 [GW2580] (first compound 2 µM, partner dose 5 µM) | 76.3% |
| O=C(/C=C/c1cccnc1)NCCCCC1CCN(C(=O)c2ccccc2)CC1 + NCC(=O)Nc1ccc(-n2nc(C(F)(F)F)cc2-c2ccc3c(ccc4ccccc43)c2)cc1 [OSU03012] (first compound 0.05 µM, partner dose 5 µM) | 78.8% |
| CC1(C)CCC(c2ccc(Cl)cc2)=C(CN2CCN(c3ccc(C(=O)NS(=O)(=O)c4ccc(N[C@H](CCN5CCOCC5)CSc5ccccc5)c(S(=O)(=O)C(F)(F)F)c4)cc3)CC2)C1 + O=C(Nc1cccc(Cl)c1)Nc1ncc(CCNc2ncnc3ccsc23)s1 [SNS314] (first compound 2 µM, partner dose 0.004 µM) | 29.2% |
| CC1(C)CCC(c2ccc(Cl)cc2)=C(CN2CCN(c3ccc(C(=O)NS(=O)(=O)c4ccc(N[C@H](CCN5CCOCC5)CSc5ccccc5)c(S(=O)(=O)C(F)(F)F)c4)cc3)CC2)C1 + Oc1nc(-c2ccc(C(F)(F)F)cc2)nc2c1CSCC2 [XAV939] (first compound 2 µM, partner dose 10 µM) | 84.4% |
